Laboratory results from PubChem BioAssay (NCATS).
Where “and” joins values, the source holds several entries; their conditions need not be identical. Equal values may be shown once. Inconclusive means that the source gave no clear call. Such entries were picked first, then a sample of the others. Potencies of inconclusive entries are doubtful fits and often do not repeat. Calls of active or inactive are those of the source. Calls follow the shape of the dose curve; as a rule, active = well fitted inhibition curve with a large enough effect; inconclusive = small, poorly fitted or top-dose-only effect; inactive = no such curve, though single readings can be large or run the other way.

Experiment: qHTS Screen of the MIPE 4.0 Collection Against Ewings Sarcoma (RDES) (AID 1259252); also: nearly all actives have a fitted effect of over 35% in size
Details: RD-ES Ewing sarcoma viability, CellTiter-Glo, 48 h; series mostly up to 45.8 µM
Procedure, shortened: (§1)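 Log-phase cells in RPMI with 5% FBS attached for 4 h, then received compounds as a titration for 48 h at 37C, 5% CO2. Viability was read by CellTiter-Glo luminescence and normalized to DMSO and no-cell wells.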
Potency is read from the fitted curve at half-maximal effect; tags tell the direction and shape of the fitted curve.

Compound | Potency
CCN1CCC(n2cc(CNc3cc(Cl)c4ncc(C#N)c(Nc5ccc(F)c(Cl)c5)c4c3)nn2)CC1 | inconclusive: 16.6 µM [inhibitor, partial curve, poor fit]
Clc1ccc(C(Cn2ccnc2)OCc2ccc(Sc3ccccc3)cc2)c(Cl)c1 (centres undefined) | inconclusive: 33.2 µM [inhibitor, single point]
COc1cc(Nc2ncc(F)c(Nc3ccc4c(n3)NC(=O)C(C)(C)O4)n2)cc(OC)c1OC | inconclusive: 1.32 µM [inhibitor, full curve, poor fit]
CNC(=O)c1ccc(C)c(-n2c(C)cc(OCc3ccc(F)cc3F)c(Br)c2=O)c1 | inconclusive: 37.2 µM [inhibitor, single point]
O=C(Nc1ccc(F)c(C(F)(F)F)c1)Nc1nnc(-c2ccncc2)s1 | inconclusive: 37.2 µM [inhibitor, single point]
Cc1cccc(Nc2nc(-c3ccncc3)cs2)c1 | inconclusive: 29.6 µM [inhibitor, single point]
COc1ccc([C@@H]2CC(=O)c3c(O)cc(O[C@@H]4O[C@H](CO[C@@H]5O[C@@H](C)[C@H](O)[C@@H](O)[C@@H]5O)[C@@H](O)[C@H](O)[C@@H]4O)cc3O2)cc1O | inconclusive: 37.2 µM [inhibitor, single point] and inconclusive: 23.5 µM [inhibitor, partial curve]
COc1ccc(-c2coc3cc(O)ccc3c2=O)cc1 | inactive
COC(=O)Nc1ccc(-c2nc(N3CCOCC3)c3cnn(C4CCN(C(=O)OC)CC4)c3n2)cc1 | active: 0.0372 µM

Experiment: qHTS Screen of the MIPE 4.0 Collection Against Ewings Sarcoma (TC71) (AID 1259253); also: nearly all actives have a fitted effect of over 40% in size
Details: TC71 Ewing sarcoma viability, CellTiter-Glo, 48 h; series mostly up to 45.8 µM
Procedure, shortened: as §1

Compound | Potency
CC(C)[C@H](CO)Nc1nc(Nc2ccc(C(=O)O)c(Cl)c2)c2ncn(C(C)C)c2n1 | inconclusive: 0.372 µM [inhibitor, partial curve, poor fit]
CC(C)(C(=O)NCC(F)(F)C(F)(F)F)C(=O)N[C@@H]1C(=O)Nc2ccccc2-c2ccccc21 | inconclusive: 20.9 µM [inhibitor, single point]
O=c1cc(CN2CCOCC2)occ1OCCCCCSc1ccnc2cc(C(F)(F)F)ccc12 | inconclusive: 23.5 µM [inhibitor, partial curve]
N[C@H](CSC(c1ccccc1)(c1ccccc1)c1ccccc1)C(=O)O | inconclusive: 29.6 µM [inhibitor, single point]
CCCn1c(=O)c2[nH]c(C34CC5CC3C[C@@H](C5)C4)nc2n(CCC)c1=O | inconclusive: 23.5 µM [inhibitor, single point]
COCCCN1CCC(NC(=O)c2cc(Cl)c(N)c3c2OCC3)CC1 | inconclusive: 37.2 µM [inhibitor, single point]
O=C1CCc2ccc(OCCCCN3CCN(c4cccc(Cl)c4Cl)CC3)cc2N1 | inconclusive: 0.0013 µM [inhibitor, full curve, poor fit]
CNCc1ccc(-c2[nH]c3cc(F)cc4c3c2CCNC4=O)cc1 | inconclusive: 16.6 µM [inhibitor, partial curve]
CC(C=CC1=C(C)CCCC1(C)C)=CC=CC(C)=CC(=O)O | inconclusive: 33.2 µM [inhibitor, single point] and inconclusive: 4.69 µM [inhibitor, full curve]
Cc1cc(C(C)(C)C)c(O)c(C)c1CC1=NCCN1 | inconclusive: 33.2 µM [inhibitor, single point]
O=C(O)c1cccc(-c2noc(-c3ccccc3F)n2)c1 | inconclusive: 20.9 µM [inhibitor, partial curve]
CC(C)C(=O)Nc1ncc(-c2cc(C(F)F)nn2-c2c(Cl)cccc2Cl)s1 | inconclusive: 33.2 µM [inhibitor, single point]
COC(=O)C1=CO[C@@H](O)[C@@H]2C(CO)=CC[C@@H]12 | inconclusive: 37.2 µM [inhibitor, single point]
Cc1ccccc1C(C(=O)NC1CCCC1)N(C(=O)Cn1cnc2ccccc21)c1cccc(F)c1 (centres undefined) | inconclusive: 23.5 µM [inhibitor, single point]
COc1cc(Oc2ccnc3cc(OC)c(OC)cc23)ccc1NC(=O)NC(C)c1nccs1 (centres undefined) | inconclusive: 33.2 µM [inhibitor, single point]
O=C(N[C@@H](c1ccccc1)[C@@H]1CCCCN1)c1cccc(C(F)(F)F)c1Cl | inconclusive: 18.7 µM [inhibitor, partial curve]
CC1Cc2ccccc2N1NC(=O)c1ccc(Cl)c(S(N)(=O)=O)c1 (centres undefined) | active: 20.9 µM
Cc1ccc(F)c(NC(=O)Nc2ccc(-c3cccc4[nH]nc(N)c34)cc2)c1 | inconclusive: 33.2 µM [inhibitor, single point]
O=c1[nH]cc(F)c(=O)[nH]1 | inconclusive: 5.9 µM [inhibitor, full curve]
Oc1ccc2ccccc2c1SSc1c(O)ccc2ccccc12 | inconclusive: 33.2 µM [inhibitor, single point]
C[C@@H]1CN(Cc2ccc(F)cc2)[C@@H](C)CN1C(=O)c1cc2c(C(=O)C(=O)N(C)C)cn(C)c2cc1Cl | inconclusive: 16.6 µM [inhibitor, partial curve]
N#Cc1ccc(NC(=O)Nc2ccccc2Br)c2n[nH]nc12 | inconclusive: 33.2 µM [inhibitor, single point]
CCN1CCC(n2cc(CNc3cc(Cl)c4ncc(C#N)c(Nc5ccc(F)c(Cl)c5)c4c3)nn2)CC1 | active: 18.7 µM
Clc1ccc(C(Cn2ccnc2)OCc2ccc(Sc3ccccc3)cc2)c(Cl)c1 (centres undefined) | inconclusive: 23.5 µM [inhibitor, partial curve]
COc1cc(Nc2ncc(F)c(Nc3ccc4c(n3)NC(=O)C(C)(C)O4)n2)cc(OC)c1OC | inconclusive: 1.32 µM [inhibitor, full curve, poor fit]
CNC(=O)c1ccc(C)c(-n2c(C)cc(OCc3ccc(F)cc3F)c(Br)c2=O)c1 | inconclusive: 37.2 µM [inhibitor, single point]
O=C(Nc1ccc(F)c(C(F)(F)F)c1)Nc1nnc(-c2ccncc2)s1 | inconclusive: 29.6 µM [inhibitor, single point]
Cc1cccc(Nc2nc(-c3ccncc3)cs2)c1 | inconclusive: 33.2 µM [inhibitor, single point]
COc1ccc([C@@H]2CC(=O)c3c(O)cc(O[C@@H]4O[C@H](CO[C@@H]5O[C@@H](C)[C@H](O)[C@@H](O)[C@@H]5O)[C@@H](O)[C@H](O)[C@@H]4O)cc3O2)cc1O | inconclusive: 37.2 µM [inhibitor, single point] and inconclusive: 33.2 µM [inhibitor, single point]
COC(=O)Nc1ccc(-c2nc(N3CCOCC3)c3cnn(C4CCN(C(=O)OC)CC4)c3n2)cc1 | inconclusive: 0.0833 µM [inhibitor, full curve]
